# From publication PMC4336329 (PLoS ONE, 2015)
# In all, about 310,000 compounds went through this assay and about 14,000 (4.5%) showed an effect of 50% or more. The effect is printed as a negative number. Some of the results follow.
# Target: human ether-à-go-go-related gene (hERG) potassium channel (human, UniProt Q12809)
# Test: primary screen, population patch clamp on CHO cells stably expressing hERG
# 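Also: peak tail current of the secondary pulse compared with the same well before compound.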
# Sequence of human ether-à-go-go-related gene (hERG) potassium channel (Q12809 whole entry, looked up): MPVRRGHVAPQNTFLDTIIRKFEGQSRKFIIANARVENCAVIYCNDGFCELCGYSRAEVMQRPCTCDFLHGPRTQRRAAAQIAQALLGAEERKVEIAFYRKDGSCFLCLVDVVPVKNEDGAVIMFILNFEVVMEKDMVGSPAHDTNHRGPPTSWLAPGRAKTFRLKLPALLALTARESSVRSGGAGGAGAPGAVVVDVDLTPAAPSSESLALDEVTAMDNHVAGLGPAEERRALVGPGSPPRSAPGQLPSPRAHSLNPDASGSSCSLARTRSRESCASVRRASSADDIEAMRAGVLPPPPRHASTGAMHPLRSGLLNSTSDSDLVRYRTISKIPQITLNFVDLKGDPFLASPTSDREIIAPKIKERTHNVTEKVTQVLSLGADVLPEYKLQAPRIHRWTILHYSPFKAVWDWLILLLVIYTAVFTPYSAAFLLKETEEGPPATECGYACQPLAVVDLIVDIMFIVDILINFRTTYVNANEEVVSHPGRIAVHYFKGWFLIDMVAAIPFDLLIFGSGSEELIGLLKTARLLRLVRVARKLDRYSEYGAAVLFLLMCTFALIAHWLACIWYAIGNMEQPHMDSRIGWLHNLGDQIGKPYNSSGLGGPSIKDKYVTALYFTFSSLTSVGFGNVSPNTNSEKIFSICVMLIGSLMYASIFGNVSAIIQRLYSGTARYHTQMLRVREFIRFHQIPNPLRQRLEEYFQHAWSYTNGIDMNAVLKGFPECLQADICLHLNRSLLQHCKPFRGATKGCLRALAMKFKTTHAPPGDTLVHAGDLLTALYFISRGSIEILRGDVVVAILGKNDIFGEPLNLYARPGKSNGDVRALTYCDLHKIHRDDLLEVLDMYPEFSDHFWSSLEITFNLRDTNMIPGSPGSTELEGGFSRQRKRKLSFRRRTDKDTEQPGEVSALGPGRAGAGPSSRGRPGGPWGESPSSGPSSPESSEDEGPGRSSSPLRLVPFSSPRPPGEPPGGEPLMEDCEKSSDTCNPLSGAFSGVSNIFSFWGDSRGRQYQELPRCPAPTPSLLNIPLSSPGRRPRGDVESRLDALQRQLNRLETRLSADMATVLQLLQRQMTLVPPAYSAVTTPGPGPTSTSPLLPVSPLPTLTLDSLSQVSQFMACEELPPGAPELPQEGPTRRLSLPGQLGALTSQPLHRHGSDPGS
row,SMILES,"hERG current change (%, negative = inhibition) at 10uM [%]"
1,CC[N+](CC)(CC)CC(=O)Nc1ccc(SC(F)F)cc1.[Cl-],-3.41
2,COc1ccc2nc(C)cc(Nc3ccc(C(=O)O)cc3)c2c1,39.5
3,COc1ccc(C(=O)C2CCN(C(=O)Nc3ccc(C)cc3)CC2)cc1,-9.82
4,O=C1c2ccc(Oc3ccc([N+](=O)[O-])cc3)cc2C(=O)N1CCO,-52.8
5,Cc1ccc(C(=O)N(CCC2=CCCCC2)c2c(N)n(Cc3ccccc3)c(=O)[nH]c2=O)o1,-16.4
6,CCN(CC)Cc1cc(C(C)=O)ccc1O.Cl,2.32
7,O=C(CNC(=O)c1ccccc1)c1ccccc1,4.42
8,CCCCNC1CCS(=O)(=O)C1 (stereo not drawn),7.23
9,Cc1ccc(/C=C2/C(=O)NC(=O)N(C)C2=O)cc1,17.2
10,S=C(N=Nc1ccccc1)NNc1ccccc1,8.75
11,COc1cccc(CNC(=O)CCc2nnc3ccc(NCCCN4CCCC4=O)nn23)c1,26.5
12,C/C(=N\NC(=O)c1ccc(O)cc1O)c1cccnc1,17.9
13,Cc1ccc(C(=O)NC(=S)Nc2cccc(-c3nc4ccccc4s3)c2)cc1,15.9
14,CC1CCC(NC(=O)C(Cc2ccccc2)n2cccc2)CC1 (stereo not drawn),-14.9
15,CNC(=S)N1CCN=C1Nc1nc(C)cc(C)n1,6.29
16,Cc1ccc(S(=O)(=O)N2CCC(C(=O)NCCN3CCOCC3)CC2)cc1C,8.7
17,CCOP(=O)(OCC)c1nc(-c2ccccc2)oc1NCc1ccccc1,-2.95
18,CC(=O)N1CCN(C(=O)CNC(=O)c2cccs2)CC1,-3.57
19,Cc1ccccc1C(=O)Oc1cccc(Nc2ncnc3ccccc23)c1,-3.38
20,Cc1cccc(C)c1NC(=O)COc1ccccc1C(=O)Nc1ccc(Br)cn1,14.4
21,Cc1ccccc1N1C(=O)C2C3CC(=O)C(c4ccccc43)C2C1=O (stereo not drawn),1.95
22,Cc1c(NC(=S)NC(=O)c2cccc([N+](=O)[O-])c2)c(=O)n(-c2ccccc2)n1C,-5.88
23,O=C(Nc1ccc(Nc2ccccc2)cc1)c1c(Cl)cccc1Cl,12.3

row,SMILES,"hERG current change (%, negative = inhibition) at 10uM [%]"
1,O=C(CCNC(=O)c1ccco1)Nc1ccc(OC(F)(F)F)cc1,2.54
2,Cc1ccc(NC(=O)Nc2cccc(C)n2)c(C)c1,-10.7
3,Cc1cc(C)nc(NS(=O)(=O)c2ccc(NC(=O)c3cccs3)cc2)n1,1.23
4,O=C(O)CCCCCCCCCC(=O)c1cccs1,20.6
5,COc1ccc(NC(=O)CNc2ccc(C#N)cc2)cc1,-18.2
6,O=C(Nc1nccs1)C(F)(F)C(F)(F)C(F)(F)C(=O)Nc1nccs1,12.7
7,CCn1cc(C(=O)OCC(=O)c2cc(C)n(-c3ccc(OC(F)F)cc3)c2C)c(=O)c2ccc(C)nc21,-27.9
8,O/N=C/c1ccc(OCc2ccccc2)c(Br)c1,30
9,CC1=CC(C)(C)N2C(=O)C3(NCCc4c3[nH]c3ccccc43)c3cc(C)cc1c32 (stereo not drawn),13.8
10,CC(=O)Oc1ccc2c(=O)oc(-c3ccccc3C)nc2c1,-0.478
11,CN(C)S(=O)(=O)c1ccc(N2CCCC2)c(C(=O)NCCc2ccc(F)cc2)c1,-31.9
12,C=C(C)Cn1c(CNC(C)=O)nc2ccccc21,1.73
13,COc1ccc2oc(=O)c(C(=O)N3c4ccccc4CC3C)cc2c1 (stereo not drawn),-21.6
14,CCC1CCc2sc(C(=O)N(C)CC(=O)Nc3cccc(OC)c3)cc2C1 (stereo not drawn),-2.55
15,C=CCN1C(=O)C2C3CC(=O)C(c4ccccc43)C2C1=O (stereo not drawn),26.8
16,COCc1[nH]nc2c1C(c1ccccc1Cl)C(C#N)=C(N)O2 (stereo not drawn),7.1
17,O=C(Nc1ccccc1N1CCOCC1)c1cc(-c2ccco2)nc2ccccc12,1.4
18,CC(=O)Nc1ccc(NC(=O)CSc2ccc(-c3ccco3)nn2)cc1,-2.54
19,O=C(O)COc1ccc(Oc2ccccc2)cc1,4.36
20,Cc1cc2nc(SCCN3CCCC3)[nH]c2cc1C,-17
21,COc1ccc(CNC(=O)CN2C(=O)c3ccccc3C2=O)cc1,14.5
22,O=c1[nH]c(N2CCN(Cc3ccc4c(c3)OCO4)CC2)nc2c1CCC2,3.47
23,COc1cc(S(=O)(=O)N2CCOCC2)ccc1NC(=O)CSc1n[nH]c(=O)[nH]c1=O,7.55

row,SMILES,"hERG current change (%, negative = inhibition) at 10uM [%]"
1,CC(C)CN(C(=O)c1cccc(S(=O)(=O)N2CCCCC2)c1)C1CCS(=O)(=O)C1 (stereo not drawn),0.956
2,Cc1cccc(CSc2cccc3cccnc23)c1,3.05
3,NNc1cc(C(=O)O)ccc1Cl,2.55
4,Cn1cccc1CNC(=O)Nc1ccccc1,1.33
5,CN(C)C1=NC[C@H](Cc2ccccc2)N1CC1CCCCC1,-14.6
6,COc1ccc(OC)c(S(=O)(=O)N2CCC(C(=O)NCC3CCCO3)CC2)c1 (stereo not drawn),-1.42
7,Cc1cc(O)c(C(C)C)cc1NC1=NS(=O)(=O)c2ccccc21,1.25
8,COc1cccc(C2=NO[C@@H]3C(=O)N(c4ccc5c(c4)OCCO5)C(=O)[C@H]23)c1OC,12.4
9,O=c1[nH]c(=S)n(-c2ccc(Cl)cc2)c(O)c1C=Nc1ccc(N2CCOCC2)cc1,18
10,O=C(CCC(=O)N1CCOc2ccccc21)N1CCN(c2ccccc2)CC1,-70
11,OCCn1nc(-c2ccccc2)cc1-c1ccccc1,-1.26
12,COc1ccc(C(=O)N[C@H](C(=O)NCc2ccco2)C(C)C)cc1,9.15
13,COc1ccc(C(=O)CSc2nnc(CN3CCCCC3)n2-c2ccc(F)cc2)cc1,-57.7
14,Cc1ccc(CC(=O)NC2CCN(C)CC2)cc1,7.64
15,O=C(CSCc1ccccc1)N/N=C/c1ccccc1OCc1ccccc1,4.14
16,CCC(NS(=O)(=O)c1ccc(C)cc1)C(=O)Nc1ccc(NC(C)=O)cc1 (stereo not drawn),-11.6
17,CCOc1ccccc1Oc1c(C)oc2c(CN3CCN(C)CC3)c(O)ccc2c1=O,-0.354
18,COc1cc(Sc2ccc(C)cc2)c(OC)cc1N.Cl,-4.21
19,O=C(C1=C[C@H](c2csc3ccccc23)C[C@H](OCc2ccc(CO)cc2)O1)N1CCN(Cc2ccccc2)CC1,17.4
20,CC(=O)OCCN(CCOC(C)=O)c1c(C)[nH]c(=O)[nH]c1=O,4.25
21,CC(=O)c1ccc2c(c1)C1C(Cl)C(Sc3ccccc3[N+](=O)[O-])CC1C(c1ccccc1[N+](=O)[O-])N2 (stereo not drawn),8.59
22,COC(=O)c1ccc(NC(=O)COC(=O)CCC2CCCC2)cc1,4.16
23,[O-][n+]1c(/C=C/c2ccccc2)ccc2ccccc21,19.3

row,SMILES,"hERG current change (%, negative = inhibition) at 10uM [%]"
1,CC/C=C/CC(=O)N[C@@H](c1ccccc1)[C@@H](O)C(=O)O[C@H]1C[C@@]2(O)[C@@H](OC(=O)c3ccccc3)C3[C@](C)(C(=O)[C@H](OC(C)=O)C(=C1C)C2(C)C)[C@@H](O)C[C@H]1OC[C@@]31OC(C)=O (stereo partly drawn),3.73
2,CCOc1ccc(C(=O)NCC(=O)N2CCN(c3ccccc3O)CC2)cc1,3.93
3,Cc1ccc(C)n1NC(=O)c1cccs1,9.98
4,Cc1cscn1,3.15
5,CCOc1cc(S(=O)(=O)n2ccc(C)n2)ccc1Br,4.32
6,COc1c(Cl)cnn(-c2ccccc2)c1=O,-28.5
7,Cc1ccc(N2CC(C(=O)Nc3nnc(C)s3)CC2=O)cc1 (stereo not drawn),-4.86
8,CN1C(=O)c2cccc(N(C)C)c2C1=O,1.74
9,N#CC1(Nc2cccc(Br)c2)C(=O)Nc2ccccc21 (stereo not drawn),6.92
10,O=C1C=C(N2CCCCCC2)C(=O)N1c1ccc(Cl)cc1,1.47
11,Cc1nc2ccccc2c(=O)n1CCN1CCOCC1,4.18
12,COCc1ccc(C(=O)NC2CCSc3ccccc32)cc1 (stereo not drawn),-6.95
13,CCOc1ccc(CCNC(=O)c2nnn(CC(=O)Nc3ccc(OC)cc3)c2N)cc1OCC,25
14,COc1ccc(C(C(=O)NCCC(C)C)N(CCO)C(=O)c2snc(C(N)=O)c2N)cc1 (stereo not drawn),-1.26
15,CCOC(=O)C1CCN(C(=O)C2CCCN2S(=O)(=O)c2ccc(Cl)cc2)CC1 (stereo not drawn),-46.2
16,Cc1nc2ccccn2c1C(=O)N/N=C/c1ccccc1Cl,-2.95
17,CN(C)c1ccc(Nc2nc(-c3cccnc3)cs2)cc1,5.8
18,CCOc1ccc(OCCC(=O)N(CCC(C)C)c2c(N)n(Cc3ccccc3)c(=O)[nH]c2=O)cc1,14.4
19,Nc1nc(-c2ccccc2)c(N=Nc2cccc3ccccc23)s1,-2.2
20,O=C(NCCCc1nc2ccccc2[nH]1)c1ccco1,16.9
21,O=[N+]([O-])c1cccc(-c2nn(-c3ccccc3)cc2CO)c1,-23.9
